# Assay results from the supplement of paper PMC8728848.
# The list shows a part of the results.
# B1: Siglec-7-SA-PE-180 (Homo sapiens), Q9Y286 (protein)
# chain: MLLLLLLPLLWGRERVEGQKSNRKDYSLTMQSSVTVQEGMCVHVRCSFSYPVDSQTDSDPVHGYWFRAGNDISWKAPVATNNPAWAVQEETRDRFHLLGDPQTKNCTLSIRDARMSDAGRYFFRMEKGNIKWNYKYDQLSVNVTALTHRPNILIPGTLESGCFQNLTCSVPWACEQGTPPMISWMGTSVSPLHPSTTRSSVLTLIPQPQHHGTSLTCQVTLPGAGVTTNRTIQLNVSYPPQNLTVTVFQGEGTASTALGNSSSLSVLEGQSLRLVCAVDSNPPARLSWTWRSLTLYPSQPSNPLVLELQVHLGDEGEFTCRAQNSLGSQHVSLNLSLQQEYTGKMRPVSGVLLGAVGGAGATALVFLSFCVIFIVVRSCRKKSARPAADVGDIGMKDANTIRGSASQGNLTESWADDNPRHHGLAAHSSGEEREIQYAPLSFHKGEPQDLSGQEATNNEYSEIKIPK
# Columns and labels:
# Assay in all cases: glycan array binding signal (z-score within array); higher = stronger binding
# Details in all cases: glycan notation: IUPAC condensed, linker removed
# [1] = target: Fuc(a1-2)Gal(b1-4)[Fuc(a1-3)]GlcNAc(b1-3)Gal(b1-4)[Fuc(a1-3)]GlcNAc
# In short: (§1)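 The Consortium for Functional Glycomics database supplied 3228 glycan arrays, of which those lacking an available protein sequence were dropped. The binding signal, a within-array Z-score, was averaged across arrays of the same protein sequence and across linkers. Negative scores can be read as non-binding.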
# [2] = target: Fuc(a1-2)Gal(b1-4)[Fuc(a1-3)]GlcNAc(b1-3)Gal(b1-4)[Fuc(a1-3)]GlcNAc(b1-3)Gal(b1-4)[Fuc(a1-3)]GlcNAc
# In short: as §1
# [3] = target: Fuc(a1-2)Gal(b1-4)[Fuc(a1-3)]GlcNAc(b1-3)GalNAc
# In short: as §1
# [4] = target: Fuc(a1-2)Gal(b1-4)[Fuc(a1-3)]GlcNAc(b1-3)[Neu5Ac(a2-6)Gal(b1-4)GlcNAc(b1-6)]Gal(b1-4)Glc
# In short: as §1
# [5] = target: Fuc(a1-2)Gal3S(b1-4)GlcNAc
# In short: as §1
# [6] = target: Fuc(a1-2)Gal6S(b1-3)GlcNAc
# In short: as §1
# [7] = target: Fuc(a1-2)Gal6S(b1-3)GlcNAc6S
# In short: as §1
# Fuc(a1-2)Gal6S(b1-4)Glc = target: Fuc(a1-2)Gal6S(b1-4)Glc
# In short: as §1
# [8] = target: Fuc(a1-2)Gal6S(b1-4)Glc6S
# In short: as §1
# [9] = target: Fuc(a1-2)Gal6S(b1-4)GlcNAc
# In short: as §1
# Fuc(a1-2)[Gal(a1-3)]Gal = target: Fuc(a1-2)[Gal(a1-3)]Gal
# In short: as §1
# [10] = target: Fuc(a1-2)[Gal(a1-3)]Gal(b1-3)GalNAc
# In short: as §1
# [11] = target: Fuc(a1-2)[Gal(a1-3)]Gal(b1-3)GalNAc(b1-3)Gal(a1-4)Gal(b1-4)Glc
# In short: as §1
# [12] = target: Fuc(a1-2)[Gal(a1-3)]Gal(b1-3)GlcNAc
# In short: as §1
# [13] = target: Fuc(a1-2)[Gal(a1-3)]Gal(b1-3)GlcNAc(b1-2)Man(a1-3)[Fuc(a1-2)[Gal(a1-3)]Gal(b1-3)GlcNAc(b1-2)Man(a1-6)]Man(b1-4)GlcNAc(b1-4)GlcNAc
# In short: as §1
# [14] = target: Fuc(a1-2)[Gal(a1-3)]Gal(b1-3)GlcNAc(b1-2)Man(a1-3)[Fuc(a1-2)[Gal(a1-3)]Gal(b1-3)GlcNAc(b1-2)Man(a1-6)]Man(b1-4)GlcNAc(b1-4)[Fuc(a1-6)]GlcNAc
# In short: as §1
# [15] = target: Fuc(a1-2)[Gal(a1-3)]Gal(b1-3)GlcNAc(b1-3)GalNAc
# In short: as §1
# [16] = target: Fuc(a1-2)[Gal(a1-3)]Gal(b1-3)GlcNAc(b1-6)GalNAc
# In short: as §1
# [17] = target: Fuc(a1-2)[Gal(a1-3)]Gal(b1-4)Glc
# In short: as §1
# [18] = target: Fuc(a1-2)[Gal(a1-3)]Gal(b1-4)GlcNAc
# In short: as §1
# [19] = target: Fuc(a1-2)[Gal(a1-3)]Gal(b1-4)GlcNAc(b1-2)Man
# In short: as §1
# [20] = target: Fuc(a1-2)[Gal(a1-3)]Gal(b1-4)GlcNAc(b1-2)Man(a1-3)[Fuc(a1-2)[Gal(a1-3)]Gal(b1-4)GlcNAc(b1-2)Man(a1-6)]Man(b1-4)GlcNAc(b1-4)GlcNAc
# In short: as §1
# [21] = target: Fuc(a1-2)[Gal(a1-3)]Gal(b1-4)GlcNAc(b1-2)Man(a1-3)[Fuc(a1-2)[Gal(a1-3)]Gal(b1-4)GlcNAc(b1-2)Man(a1-6)]Man(b1-4)GlcNAc(b1-4)[Fuc(a1-6)]GlcNAc
# In short: as §1
# [22] = target: Fuc(a1-2)[Gal(a1-3)]Gal(b1-4)GlcNAc(b1-3)GalNAc
# In short: as §1
# [23] = target: Fuc(a1-2)[Gal(a1-3)]Gal(b1-4)GlcNAc(b1-3)[Fuc(a1-2)[Gal(a1-3)]Gal(b1-4)GlcNAc(b1-6)]GalNAc
# In short: as §1
# [24] = target: Fuc(a1-2)[Gal(a1-3)]Gal(b1-4)GlcNAc(b1-6)GalNAc
# In short: as §1
# [25] = target: Fuc(a1-2)[Gal(a1-3)]Gal(b1-4)[Fuc(a1-3)]Glc
# In short: as §1
# [26] = target: Fuc(a1-2)[Gal(a1-3)]Gal(b1-4)[Fuc(a1-3)]GlcNAc
# In short: as §1
# [27] = target: Fuc(a1-2)[Gal(a1-3)]Gal(b1-4)[Fuc(a1-3)]GlcNAc(b1-3)GalNAc
# In short: as §1
# [28] = target: Fuc(a1-2)[Gal(a1-4)]Gal(b1-4)GlcNAc
# In short: as §1
# [29] = target: Fuc(a1-2)[GalNAc(a1-3)]Gal
# In short: as §1
# [30] = target: Fuc(a1-2)[GalNAc(a1-3)]Gal(b1-3)GalNAc(a1-3)[Fuc(a1-2)]Gal(b1-4)GlcNAc
# In short: as §1
# [31] = target: Fuc(a1-2)[GalNAc(a1-3)]Gal(b1-3)GalNAc(b1-3)Gal(a1-4)Gal(b1-4)Glc
# In short: as §1
# [32] = target: Fuc(a1-2)[GalNAc(a1-3)]Gal(b1-3)GlcNAc
# In short: as §1
# [33] = target: Fuc(a1-2)[GalNAc(a1-3)]Gal(b1-3)GlcNAc(b1-2)Man(a1-3)[Fuc(a1-2)[GalNAc(a1-3)]Gal(b1-3)GlcNAc(b1-2)Man(a1-6)]Man(b1-4)GlcNAc(b1-4)GlcNAc
# In short: as §1
# [34] = target: Fuc(a1-2)[GalNAc(a1-3)]Gal(b1-3)GlcNAc(b1-2)Man(a1-3)[Fuc(a1-2)[GalNAc(a1-3)]Gal(b1-3)GlcNAc(b1-2)Man(a1-6)]Man(b1-4)GlcNAc(b1-4)[Fuc(a1-6)]GlcNAc
# In short: as §1
# [35] = target: Fuc(a1-2)[GalNAc(a1-3)]Gal(b1-3)GlcNAc(b1-3)GalNAc
# In short: as §1
# [36] = target: Fuc(a1-2)[GalNAc(a1-3)]Gal(b1-3)GlcNAc(b1-6)GalNAc
# In short: as §1
# [37] = target: Fuc(a1-2)[GalNAc(a1-3)]Gal(b1-4)Glc
# In short: as §1
# [38] = target: Fuc(a1-2)[GalNAc(a1-3)]Gal(b1-4)GlcNAc
# In short: as §1
# [39] = target: Fuc(a1-2)[GalNAc(a1-3)]Gal(b1-4)GlcNAc(b1-2)Man
# In short: as §1
# [40] = target: Fuc(a1-2)[GalNAc(a1-3)]Gal(b1-4)GlcNAc(b1-2)Man(a1-3)[Fuc(a1-2)[GalNAc(a1-3)]Gal(b1-4)GlcNAc(b1-2)Man(a1-6)]Man(b1-4)GlcNAc(b1-4)GlcNAc
# In short: as §1
# [41] = target: Fuc(a1-2)[GalNAc(a1-3)]Gal(b1-4)GlcNAc(b1-2)Man(a1-3)[Fuc(a1-2)[GalNAc(a1-3)]Gal(b1-4)GlcNAc(b1-2)Man(a1-6)]Man(b1-4)GlcNAc(b1-4)[Fuc(a1-6)]GlcNAc
# In short: as §1
# [42] = target: Fuc(a1-2)[GalNAc(a1-3)]Gal(b1-4)GlcNAc(b1-3)Gal(b1-4)GlcNAc
# In short: as §1
# [43] = target: Fuc(a1-2)[GalNAc(a1-3)]Gal(b1-4)GlcNAc(b1-3)Gal(b1-4)GlcNAc(b1-3)Gal(b1-4)GlcNAc
# In short: as §1
binder,measurement,setting,value
B1,glycan array binding signal (z-score),[1],-0.402
same,glycan array binding signal (z-score),[2],-0.027
same,glycan array binding signal (z-score),[3],-0.025
same,glycan array binding signal (z-score),[4],-0.214
same,glycan array binding signal (z-score),[5],-0.113
same,glycan array binding signal (z-score),[6],0.295
same,glycan array binding signal (z-score),[7],2.66
same,glycan array binding signal (z-score),Fuc(a1-2)Gal6S(b1-4)Glc,-0.16
same,glycan array binding signal (z-score),[8],0.217
same,glycan array binding signal (z-score),[9],-0.178
same,glycan array binding signal (z-score),Fuc(a1-2)[Gal(a1-3)]Gal,0.008
same,glycan array binding signal (z-score),[10],-0.212
same,glycan array binding signal (z-score),[11],-0.386
same,glycan array binding signal (z-score),[12],0.083
same,glycan array binding signal (z-score),[13],-0.268
same,glycan array binding signal (z-score),[14],-0.12
same,glycan array binding signal (z-score),[15],-0.11
same,glycan array binding signal (z-score),[16],-0.434
same,glycan array binding signal (z-score),[17],0.002
same,glycan array binding signal (z-score),[18],-0.231
same,glycan array binding signal (z-score),[19],-0.341
same,glycan array binding signal (z-score),[20],-0.035
same,glycan array binding signal (z-score),[21],-0.421
same,glycan array binding signal (z-score),[22],-0.394
same,glycan array binding signal (z-score),[23],0.667
same,glycan array binding signal (z-score),[24],-0.245
same,glycan array binding signal (z-score),[25],-0.264
same,glycan array binding signal (z-score),[26],-0.326
same,glycan array binding signal (z-score),[27],-0.351
same,glycan array binding signal (z-score),[28],-0.266
same,glycan array binding signal (z-score),[29],-0.204
same,glycan array binding signal (z-score),[30],-0.433
same,glycan array binding signal (z-score),[31],-0.597
same,glycan array binding signal (z-score),[32],-0.313
same,glycan array binding signal (z-score),[33],-0.212
same,glycan array binding signal (z-score),[34],-0.305
same,glycan array binding signal (z-score),[35],-0.057
same,glycan array binding signal (z-score),[36],-0.099
same,glycan array binding signal (z-score),[37],-0.52
same,glycan array binding signal (z-score),[38],-0.265
same,glycan array binding signal (z-score),[39],-0.374
same,glycan array binding signal (z-score),[40],-0.267
same,glycan array binding signal (z-score),[41],-0.301
same,glycan array binding signal (z-score),[42],0.132
same,glycan array binding signal (z-score),[43],-0.288
